# Data reported in the supplement of paper PMC8728848.
# The list shows a part of the results.
# Columns and labels:
# Test in all cases: glycan array binding signal (z-score within array); higher = stronger binding
# Conditions in all cases: glycan notation: IUPAC condensed, linker removed
# [1] = target: Fuc(a1-2)Gal(b1-4)[Fuc(a1-3)]GlcNAc
# Summary of the method: (§1)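 Arrays were curated from the Consortium for Functional Glycomics database, 3228 in total, and kept only where the protein sequence was available. Binding is expressed as a within-array Z-score. This score was averaged across arrays of the same protein sequence at different concentrations or buffers and across linkers, and negative values can be read as non-binding.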
# [2] = target: Fuc(a1-2)Gal(b1-4)[Fuc(a1-3)]GlcNAc(b1-2)Man(a1-3)[Fuc(a1-2)Gal(b1-4)[Fuc(a1-3)]GlcNAc(b1-2)Man(a1-6)]Man(b1-4)GlcNAc(b1-4)[Fuc(a1-6)]GlcNAc
# Summary of the method: as §1
# [3] = target: Fuc(a1-2)Gal(b1-4)[Fuc(a1-3)]GlcNAc(b1-2)[Fuc(a1-2)Gal(b1-4)[Fuc(a1-3)]GlcNAc(b1-4)]Man(a1-3)[Fuc(a1-2)Gal(b1-4)[Fuc(a1-3)]GlcNAc(b1-2)Man(a1-6)]Man(b1-4)GlcNAc(b1-4)GlcNAc
# Summary of the method: as §1
# [4] = target: Fuc(a1-2)Gal(b1-4)[Fuc(a1-3)]GlcNAc(b1-3)Gal(b1-4)[Fuc(a1-3)]GlcNAc
# Summary of the method: as §1
# [5] = target: Fuc(a1-2)Gal(b1-4)[Fuc(a1-3)]GlcNAc(b1-3)Gal(b1-4)[Fuc(a1-3)]GlcNAc(b1-3)Gal(b1-4)[Fuc(a1-3)]GlcNAc
# Summary of the method: as §1
# [6] = target: Fuc(a1-2)Gal(b1-4)[Fuc(a1-3)]GlcNAc(b1-3)GalNAc
# Summary of the method: as §1
# [7] = target: Fuc(a1-2)Gal(b1-4)[Fuc(a1-3)]GlcNAc(b1-3)[Neu5Ac(a2-6)Gal(b1-4)GlcNAc(b1-6)]Gal(b1-4)Glc
# Summary of the method: as §1
# [8] = target: Fuc(a1-2)Gal3S(b1-4)GlcNAc
# Summary of the method: as §1
# [9] = target: Fuc(a1-2)Gal6S(b1-3)GlcNAc
# Summary of the method: as §1
# [10] = target: Fuc(a1-2)Gal6S(b1-3)GlcNAc6S
# Summary of the method: as §1
# Fuc(a1-2)Gal6S(b1-4)Glc = target: Fuc(a1-2)Gal6S(b1-4)Glc
# Summary of the method: as §1
# [11] = target: Fuc(a1-2)Gal6S(b1-4)Glc6S
# Summary of the method: as §1
# Fuc(a1-2)[Gal(a1-3)]Gal = target: Fuc(a1-2)[Gal(a1-3)]Gal
# Summary of the method: as §1
# [12] = target: Fuc(a1-2)[Gal(a1-3)]Gal(b1-3)GalNAc
# Summary of the method: as §1
# [13] = target: Fuc(a1-2)[Gal(a1-3)]Gal(b1-3)GalNAc(b1-3)Gal(a1-4)Gal(b1-4)Glc
# Summary of the method: as §1
# [14] = target: Fuc(a1-2)[Gal(a1-3)]Gal(b1-3)GlcNAc
# Summary of the method: as §1
# [15] = target: Fuc(a1-2)[Gal(a1-3)]Gal(b1-3)GlcNAc(b1-2)Man(a1-3)[Fuc(a1-2)[Gal(a1-3)]Gal(b1-3)GlcNAc(b1-2)Man(a1-6)]Man(b1-4)GlcNAc(b1-4)GlcNAc
# Summary of the method: as §1
# [16] = target: Fuc(a1-2)[Gal(a1-3)]Gal(b1-3)GlcNAc(b1-2)Man(a1-3)[Fuc(a1-2)[Gal(a1-3)]Gal(b1-3)GlcNAc(b1-2)Man(a1-6)]Man(b1-4)GlcNAc(b1-4)[Fuc(a1-6)]GlcNAc
# Summary of the method: as §1
# [17] = target: Fuc(a1-2)[Gal(a1-3)]Gal(b1-3)GlcNAc(b1-3)GalNAc
# Summary of the method: as §1
# [18] = target: Fuc(a1-2)[Gal(a1-3)]Gal(b1-3)GlcNAc(b1-6)GalNAc
# Summary of the method: as §1
# [19] = target: Fuc(a1-2)[Gal(a1-3)]Gal(b1-4)Glc
# Summary of the method: as §1
# [20] = target: Fuc(a1-2)[Gal(a1-3)]Gal(b1-4)GlcNAc
# Summary of the method: as §1
# [21] = target: Fuc(a1-2)[Gal(a1-3)]Gal(b1-4)GlcNAc(b1-2)Man
# Summary of the method: as §1
# [22] = target: Fuc(a1-2)[Gal(a1-3)]Gal(b1-4)GlcNAc(b1-2)Man(a1-3)[Fuc(a1-2)[Gal(a1-3)]Gal(b1-4)GlcNAc(b1-2)Man(a1-6)]Man(b1-4)GlcNAc(b1-4)GlcNAc
# Summary of the method: as §1
# [23] = target: Fuc(a1-2)[Gal(a1-3)]Gal(b1-4)GlcNAc(b1-2)Man(a1-3)[Fuc(a1-2)[Gal(a1-3)]Gal(b1-4)GlcNAc(b1-2)Man(a1-6)]Man(b1-4)GlcNAc(b1-4)[Fuc(a1-6)]GlcNAc
# Summary of the method: as §1
# [24] = target: Fuc(a1-2)[Gal(a1-3)]Gal(b1-4)GlcNAc(b1-3)GalNAc
# Summary of the method: as §1
# [25] = target: Fuc(a1-2)[Gal(a1-3)]Gal(b1-4)GlcNAc(b1-6)GalNAc
# Summary of the method: as §1
# [26] = target: Fuc(a1-2)[Gal(a1-3)]Gal(b1-4)[Fuc(a1-3)]Glc
# Summary of the method: as §1
# [27] = target: Fuc(a1-2)[Gal(a1-3)]Gal(b1-4)[Fuc(a1-3)]GlcNAc
# Summary of the method: as §1
# [28] = target: Fuc(a1-2)[Gal(a1-3)]Gal(b1-4)[Fuc(a1-3)]GlcNAc(b1-3)GalNAc
# Summary of the method: as §1
# [29] = target: Fuc(a1-2)[Gal(a1-4)]Gal(b1-4)GlcNAc
# Summary of the method: as §1
# [30] = target: Fuc(a1-2)[GalNAc(a1-3)]Gal
# Summary of the method: as §1
# [31] = target: Fuc(a1-2)[GalNAc(a1-3)]Gal(b1-3)GalNAc(a1-3)[Fuc(a1-2)]Gal(b1-4)GlcNAc
# Summary of the method: as §1
# [32] = target: Fuc(a1-2)[GalNAc(a1-3)]Gal(b1-3)GalNAc(b1-3)Gal(a1-4)Gal(b1-4)Glc
# Summary of the method: as §1
# [33] = target: Fuc(a1-2)[GalNAc(a1-3)]Gal(b1-3)GlcNAc
# Summary of the method: as §1
# [34] = target: Fuc(a1-2)[GalNAc(a1-3)]Gal(b1-3)GlcNAc(b1-2)Man(a1-3)[Fuc(a1-2)[GalNAc(a1-3)]Gal(b1-3)GlcNAc(b1-2)Man(a1-6)]Man(b1-4)GlcNAc(b1-4)GlcNAc
# Summary of the method: as §1
# [35] = target: Fuc(a1-2)[GalNAc(a1-3)]Gal(b1-3)GlcNAc(b1-2)Man(a1-3)[Fuc(a1-2)[GalNAc(a1-3)]Gal(b1-3)GlcNAc(b1-2)Man(a1-6)]Man(b1-4)GlcNAc(b1-4)[Fuc(a1-6)]GlcNAc
# Summary of the method: as §1
# [36] = target: Fuc(a1-2)[GalNAc(a1-3)]Gal(b1-3)GlcNAc(b1-3)GalNAc
# Summary of the method: as §1
binder,measurement,setting,value
"mCC1-Hexahis-Precomplexed (Mus musculus), P31809 (protein) MELASAHLHKGQVPWGGLLLTASLLASWSPATTAEVTIEAVPPQVAEDNNVLLLVHNLPLALGAFAWYKGNTTAIDKEIARFVPNSNMNFTGQAYSGREIIYSNGSLLFQMITMKDMGVYTLDMTDENYRRTQATVRFHVHPILLKPNITSNNSNPVEGDDSVSLTCDSYTDPDNINYLWSRNGESLSEGDRLKLSEGNRTLTLLNVTRNDTGPYVCETRNPVSVNRSDPFSLNIIYGPDTPIISPSDIYLHPGSNLNLSCHAASNPPAQYFWLINEKPHASSQELFIPNITTNNSGTYTCFVNNSVTGLSRTTVKNITVLEPVTQPFLQVTNTTVKELDSVTLTCLSNDIGANIQWLFNSQSLQLTERMTLSQNNSILRIDPIKREDAGEYQCEISNPVSVRRSNSIKLDIIFDPTQGGLSDGHHHHHH",glycan array binding signal (z-score),[1],-0.226
same,glycan array binding signal (z-score),[2],0.05
same,glycan array binding signal (z-score),[3],-0.254
same,glycan array binding signal (z-score),[4],-0.251
same,glycan array binding signal (z-score),[5],-0.097
same,glycan array binding signal (z-score),[6],-0.04
same,glycan array binding signal (z-score),[7],-0.102
same,glycan array binding signal (z-score),[8],-0.219
same,glycan array binding signal (z-score),[9],-0.21
same,glycan array binding signal (z-score),[10],1.11
same,glycan array binding signal (z-score),Fuc(a1-2)Gal6S(b1-4)Glc,-0.247
same,glycan array binding signal (z-score),[11],-0.128
same,glycan array binding signal (z-score),Fuc(a1-2)[Gal(a1-3)]Gal,-0.192
same,glycan array binding signal (z-score),[12],-0.087
same,glycan array binding signal (z-score),[13],-0.228
same,glycan array binding signal (z-score),[14],0.296
same,glycan array binding signal (z-score),[15],-0.264
same,glycan array binding signal (z-score),[16],-0.02
same,glycan array binding signal (z-score),[17],-0.171
same,glycan array binding signal (z-score),[18],-0.18
same,glycan array binding signal (z-score),[19],-0.207
same,glycan array binding signal (z-score),[20],-0.203
same,glycan array binding signal (z-score),[21],-0.059
same,glycan array binding signal (z-score),[22],-0.106
same,glycan array binding signal (z-score),[23],-0.156
same,glycan array binding signal (z-score),[24],-0.17
same,glycan array binding signal (z-score),[25],-0.213
same,glycan array binding signal (z-score),[26],-0.112
same,glycan array binding signal (z-score),[27],0.002
same,glycan array binding signal (z-score),[28],-0.141
same,glycan array binding signal (z-score),[29],-0.269
same,glycan array binding signal (z-score),[30],-0.177
same,glycan array binding signal (z-score),[31],-0.156
same,glycan array binding signal (z-score),[32],-0.256
same,glycan array binding signal (z-score),[33],-0.277
same,glycan array binding signal (z-score),[34],-0.212
same,glycan array binding signal (z-score),[35],0.006
same,glycan array binding signal (z-score),[36],-0.203
